Test results taken from the supplement of paper PMC3334620.
Whole data set: some 33,000 sequences, median “E-score (-0.5 to 0.5)” near -0.012, cut for the highest 2% near 0.27. Some of the results follow.

What follows are sequences tested against T1, Vhr1 (UniProt P40522) (assay: PBM E-score (8-mer binding enrichment) (E-score (-0.5 to 0.5)); higher = stronger / more preferred TF binding; most listed sequences are background and not binding sites). Conditions: protein concentration: 200 nM; construct: GST-full length.
T1 sequence: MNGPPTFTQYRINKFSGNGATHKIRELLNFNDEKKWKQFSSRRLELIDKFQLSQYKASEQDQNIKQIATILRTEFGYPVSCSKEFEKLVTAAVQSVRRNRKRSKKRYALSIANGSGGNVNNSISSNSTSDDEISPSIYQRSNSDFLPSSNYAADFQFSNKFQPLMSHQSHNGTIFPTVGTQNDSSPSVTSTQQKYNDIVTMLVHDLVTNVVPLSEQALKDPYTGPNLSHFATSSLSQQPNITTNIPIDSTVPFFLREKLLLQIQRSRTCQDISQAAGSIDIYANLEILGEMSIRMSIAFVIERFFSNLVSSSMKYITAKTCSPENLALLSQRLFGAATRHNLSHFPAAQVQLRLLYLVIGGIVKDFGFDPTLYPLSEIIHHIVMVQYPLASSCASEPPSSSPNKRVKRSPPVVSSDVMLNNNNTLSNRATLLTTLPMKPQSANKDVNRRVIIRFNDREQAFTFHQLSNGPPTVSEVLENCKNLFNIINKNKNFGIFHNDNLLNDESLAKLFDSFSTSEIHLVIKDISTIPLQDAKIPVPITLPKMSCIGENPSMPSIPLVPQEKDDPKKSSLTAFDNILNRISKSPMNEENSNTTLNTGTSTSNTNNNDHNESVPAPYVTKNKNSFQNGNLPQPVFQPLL
Summary of the method: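 Bound GST-tagged yeast transcription factors, applied at about 100-200 nM to double-stranded universal all-10-mer Agilent arrays, were detected with fluorescent anti-GST. Scans were normalised with masliner. A modified Wilcoxon-Mann-Whitney statistic, the E-score, was assigned to each ungapped eight-base word pooled with its reverse complement by the Universal PBM Analysis Suite.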

Sequence	PBM E-score
AGGGCGAT	-0.0273
TATATACA	0.162
ACCCGGCG	-0.0379
AGCAGACT	-0.166
ACCCAAAA	-0.127
CAAGGCAA	-0.128
GGTACGTA	0.0346
AACGGACA	-0.0146
CCTAATGC	-0.14
ACGGAGCC	-0.0806
AGGCGTAC	-0.0151
ACTGACTG	0.0572
TAATACTA	0.114
AATTTTTC	-0.131
CGCACTCC	-0.15
ACCCGAAT	0.0408
CTGATAAC	-0.00673
ATCTAAAA	0.0219
CGTAAGGC	-0.167
GAACCGCC	0.0756
TCCCCGGA	0.0112
CTAGTTTC	0.177
CGTTCGCC	-0.0877
CAGGGGAA	0.00812
ATCCGCAC	0.201

Sequence	PBM E-score
CACAATCA	0.143
GGATACAC	0.15
AGACGCAT	-0.0874
CCATAAAG	-0.142
ATCTTGCC	-0.0221
GACTTAGC	-0.19
ACTTGTAG	-0.0865
ACCTCGGC	-0.00019
ACAGTGCC	0.0284
TCCTCGAA	-0.165
GAAAATTC	-0.274
TAGCTTGA	-0.119
TAGTGCGA	0.092
CCCTCGCG	-0.0645
GACGAAGA	-0.0356
ATAATTGA	0.106
CGTGTAAC	-0.042
ATCCCTCC	-0.0597
CGGTATCC	0.062
ACCACACT	0.0172
TTACCCAA	-0.0451
CTGAGGGC	-0.236
ATAAATAT	0.131
CGGTCGCC	0.0397
CTACACCC	-0.0346

Sequence	PBM E-score
GCGGCCAC	0.0847
TCGCACCA	0.219
GAGATTAC	0.2
CGCACGGA	0.0396
AATTCACT	-0.0741
AGCGCGCG	0.0844
AAACCTCG	-0.166
ACAGTCCT	0.025
ATCCTCAC	0.159
ATTGAAGA	-0.118
ATTATGCC	0.0893
CAGACATG	0.0554
AGCTACCC	-0.0112
CGACCGTC	-0.19
ACAACCGA	0.204
ATAGGAGG	-0.0587
TGGAATAA	-0.145
AGTGAGAA	-0.058
GCTCGCTA	-0.0499
AGTACCAT	0.0849
AATTCACC	0.14
GATATCCC	0.0153
AAGATGGC	-0.0738
ATGATCGA	0.101
ACGGATCC	0.117

Sequence	PBM E-score
CAATGTGC	0.016
GATATGCA	-0.0288
AGGGTACC	-0.252
GCGACATA	0.0386
AAGGAGCG	-0.0927
GACGTTAC	-0.062
GTCTGGAA	-0.151
CACTTACC	0.0726
CGGGGAAA	0.0594
TGCCATAA	-0.189
GAAGTAAC	-0.142
CGATGTTA	0.0662
CCTGTGCG	0.0725
CAACTTAA	-0.23
AGTAGAAA	-0.185
TACCCTAA	0.00346
GTGCAACA	-0.0429
GTGTGATA	0.246
AGGTTTAT	0.201
AAACTGAT	0.0559
GTGCATGA	0.0825
ACCATAGA	-0.0566
CTCATCGC	0.239
CGTCGATC	0.059
CTAACAAA	0.097

Sequence	PBM E-score
TACACACA	0.268
AACCAGTA	0.0285
AAGTCTTA	-0.153
GTAACAAC	-0.00644
GCTAACAA	-0.269
GGCGTGCA	-0.213
CCATGCTA	0.0214
ATCTGTCG	0.0175
ATCCCTTA	-0.132
TCTTCAAA	-0.191
GCATAGTA	0.143
AAGACGTG	-0.092
AGATTGAT	-0.0242
GCCGTCTA	0.00852
CATGTTGA	0.278
CTCAGTTC	-0.211
CACACCTG	0.207
ATAATGAG	-0.0752
GCCTACCA	-0.124
AGGCACGG	-0.0807
TAAGCGCA	-0.255
ACCAATGG	0.0488
CACCCACC	0.317
CCCCAGAA	0.0534
AAGGTATA	-0.0777

Sequence	PBM E-score
ATCCGCGA	0.054
GAGTGCCC	-0.0963
GGTTCACA	-0.0324
TAAGTTGA	-0.039
CCCAGAGC	-0.164
GGCATACA	-0.0056
ACAGTCAC	0.242
ACTTCCCT	0.047
CAGGCGTA	0.0631
ACCAGCAC	0.0377
CCAAGCCG	-0.0219
GGCGATGA	0.18
AGAGCTCT	-0.414
AGCCCGAG	-0.0236
CGGCCAGC	0.0279
TATGGCCA	-0.103
AGTCGACA	0.197
CTTAACTC	0.0269
CCTCGAAA	-0.0369
AAGGAGTA	0.0394
CGACGTGC	-0.0912
ATCGTCTA	0.0131
CGAACTTA	-0.156
AATTGTCG	0.00109
CGTTTTCC	-0.224

Sequence	PBM E-score
AAGCGTGC	-0.0645
TCTTTGCA	-0.116
CATGTAGC	0.0159
CCGCAGAA	-0.17
ATGACCCG	0.0608
GCATACGA	0.0994
ATTTATGG	0.0625
GGAACAGA	0.0035
CTGCCTAA	-0.0481
CTCAGGTC	-0.0841
GCCACCAC	-0.0307
CTCAACCC	0.00367
CACTTGCC	-0.145
CATGACCC	0.256
CGACGCAC	-0.0141
GATGGACC	-0.00355
AGCCTATG	-0.217
GTTCTCAA	-0.0837
ACTACAAG	-0.00586
ACTTCGCG	0.00814
CGTAGCAG	-0.142
GGACTTCA	-0.126
ACTTGGCA	-0.289
CAGCTCCG	0.139
CTCTAACC	-0.0591

Sequence	PBM E-score
AACTATAA	0.0887
TAAGCCTA	-0.259
CTTCTAAC	-0.258
GACATGAA	-0.0428
CGCTTTCA	-0.18
CGCGCACG	0.102
CTACAAGA	-0.136
CGTCTGTC	-0.0216
AATACTCG	0.1
ACCATTCT	-0.107
CACCCTGA	0.245
GACAGGAA	-0.0881
GATGGCCA	-0.166
ACTCCCAC	0.105
GTGCGTTA	-0.0829
TGATACAA	0.178
AACGAGCT	0.0698
AAACCTTC	-0.165
AGTGGAAG	-0.212
ATGAACTG	0.0424
CCCGACTC	0.426
GATTGTTA	0.0785
CCAGTAGC	0.113
CCTCAGCG	-0.142
TAACTACA	0.0788

Sequence	PBM E-score
CAAAACAC	-0.0791
CACCCTCC	0.276
CGATCCGA	0.155
CTGCGCAA	0.0499
CTGTATGA	0.00162
ACGTAGAG	-0.252
ATGCCTAG	-0.213
CAACCTCC	0.0131
TAACGCCA	-0.00315
TGATTACA	0.221
AGCTACTG	0.175
GTCAACGA	0.109
CGACCTGC	-0.0762
CAGTGTGA	0.285
CGATGTGC	0.184
AGTATCCA	0.0886
ATCAAGAA	0.032
AAGATGAA	-0.115
ACCCCTAT	0.0618
CATTGGTA	0.00258
ATGTCCTC	-0.156
GCTCTTGA	-0.0407
CGCCTATC	-0.00765
ATCGCCAA	-0.237
ACCATGCG	0.0586

Sequence	PBM E-score
GGGTCGCA	0.045
AGAGAATG	0.0611
AATAAAGT	0.0705
TCTATCAA	-0.129
GCTATGCC	-0.196
CCCTGCTA	-0.148
AGTCATGG	0.458
ACTACCAG	0.109
CGTGTGGC	0.0774
CTCACACC	0.0809
AAACTCCA	0.0649
ATACAATC	0.0532
AGTGCAGA	-0.109
AACAAGTT	0.0211
ACTCCTCA	0.0273
AGGTCGTA	0.107
AGTACAGC	-0.0455
AAAACCGC	-0.0447
AGATTTGC	0.0715
ATCCATTA	-0.00519
CGCATCCG	-0.00566
AACGCATG	0.14
ATACATCG	0.242
ACGACTAG	0.162
ACGGGGCG	0.0736

Sequence	PBM E-score
CATGGCGC	0.0885
CACGACGC	-0.0679
CGCCCGCC	0.17
CACTCGAC	0.0633
GGGGTATA	-0.0282
CGGCATTC	-0.139
GGACAAAA	-0.132
ATGCACCC	0.0555
AGCCCACA	0.0814
ACATGGAC	0.109
CTGAGAAC	0.137
TCATTTCA	0.048
CAAATGTC	-0.183
ATTGGCGC	-0.135
CTGGGAAG	-0.00594
AAAGGGCC	-0.189
ACGATAAG	-0.141
AATTCTAC	-0.173
AAAAAGAG	-0.13
CGGGACGA	-0.0597
ACTTAAGC	-0.18
CCAGGGCC	-0.21
GGAATGGA	-0.0073
AGACCGAG	-0.0568
GCGAATAA	0.0367

Sequence	PBM E-score
AAGTCCAG	-0.23
CTTCTGAA	-0.0295
ACATGGCG	0.152
ATAGGTAG	-0.0067
AAGTTAAA	-0.287
CCGCGACG	-0.0352
GCTTGCAA	0.0649
TAATCTCA	0.077
ACGGGCTA	-0.146
TACGCCTA	-0.0313
AGAGTTTG	0.0245
GGGTGTCA	0.0145
CCCCGACC	0.0464
CGGCAACA	0.0667
AATAATGC	0.0521
CGTCACCA	-0.036
AAACCTGC	-0.144
TACGAAAA	-0.187
ACTAAAAC	-0.0433
AGCTGTCC	-0.239
TAGAGCGA	-0.0223
ACACGCCA	0.163
ACTCCCGC	0.0912
ATGTAAAC	0.0482
CGGAGCAA	-0.0852

Sequence	PBM E-score
CGGATCTA	-0.0646
CTCTTACA	-0.136
ACAGATAT	0.137
AAACTAAG	-0.00679
ACGTTTCG	0.0198
CATCAAAA	0.0172
GAATAGGA	-0.0181
ATCATCAT	0.226
GTTCGCCA	-0.0665
GCCCGCAA	0.12
AAAGGACT	-0.105
TAAAAGTA	-0.215
AATCAAGA	0.0407
ATGGCCCA	-0.171
CCCCTCCC	0.171
CGTTACGA	0.0568
GGTTCTGA	0.129
GCATGCGA	0.159
GCCGTGAC	0.234
TGATAAAA	-0.095
GATTTCAA	-0.249
ATAGGACG	-0.136
AGCCACCT	-0.0568
GGCTACCA	-0.0282
ATGATTAG	0.317

Sequence	PBM E-score
GGATGGTA	0.137
GGACATTA	0.13
ACGTAACC	-0.129
CAATGATG	0.1
CCCGGTGA	0.0388
AGTCATCA	0.439
ATCGACTC	0.191
CGTCGCAG	0.0721
AGCCCAAC	-0.0844
ATCTTGAG	0.0114
CAGGGCGA	0.038
GGGACGAA	-0.14
GGAGATAC	0.0377
CGTGACAA	-0.0207
CTTCCCGA	0.113
AACGCATT	3e-05
ACTGACCG	-0.0765
CATCTTGA	0.0453
AATGCTGT	-0.279
